Measured values as given in the supplement of paper PMC3334620.
The full ranking holds about 33,000 sequences; the median of “E-score (-0.5 to 0.5)” is about -0.021, and the highest 2% start at about 0.32. The list shows a part of the results.

target: T1, Zap1 (UniProt P47043); test: PBM E-score (8-mer binding enrichment) (E-score (-0.5 to 0.5)); higher = stronger / more preferred TF binding; most listed sequences are background and not binding sites; conditions: protein concentration: 200 nM; construct: GST-full length
T1 sequence: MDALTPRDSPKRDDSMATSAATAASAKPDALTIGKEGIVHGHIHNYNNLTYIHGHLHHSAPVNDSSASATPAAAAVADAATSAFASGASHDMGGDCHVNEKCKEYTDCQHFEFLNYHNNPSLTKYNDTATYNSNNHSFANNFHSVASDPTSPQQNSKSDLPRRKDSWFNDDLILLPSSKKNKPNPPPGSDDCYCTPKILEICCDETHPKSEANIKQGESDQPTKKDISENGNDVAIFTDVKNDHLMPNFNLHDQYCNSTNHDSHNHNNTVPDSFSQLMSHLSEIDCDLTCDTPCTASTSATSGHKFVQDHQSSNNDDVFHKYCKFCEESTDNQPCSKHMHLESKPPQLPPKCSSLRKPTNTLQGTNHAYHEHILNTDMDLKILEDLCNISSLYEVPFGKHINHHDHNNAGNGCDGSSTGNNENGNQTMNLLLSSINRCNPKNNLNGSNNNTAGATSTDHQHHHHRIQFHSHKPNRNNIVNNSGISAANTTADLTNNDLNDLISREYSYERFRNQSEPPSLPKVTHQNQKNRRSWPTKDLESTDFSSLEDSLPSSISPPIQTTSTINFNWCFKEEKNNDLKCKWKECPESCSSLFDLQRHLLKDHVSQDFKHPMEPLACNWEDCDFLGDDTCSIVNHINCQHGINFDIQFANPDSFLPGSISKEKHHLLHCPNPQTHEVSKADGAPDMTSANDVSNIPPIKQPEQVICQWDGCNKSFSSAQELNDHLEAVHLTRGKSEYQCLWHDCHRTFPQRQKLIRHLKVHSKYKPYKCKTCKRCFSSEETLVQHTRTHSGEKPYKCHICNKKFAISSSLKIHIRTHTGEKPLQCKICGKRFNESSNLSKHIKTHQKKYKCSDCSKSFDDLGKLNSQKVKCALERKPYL
Summary of the method: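 Full-length yeast transcription factors or their DNA-binding domains, GST-tagged and expressed with PURExpress, were applied at about 100-200 nM to universal all-10-mer Agilent arrays. These arrays had been made double-stranded by primer extension on fresh or once-stripped slides. Detection used fluorescent anti-GST, normalisation used masliner, and E-scores for ungapped eight-base words pooled with reverse complements came from the Universal PBM Analysis Suite.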

Row | Sequence | PBM E-score
1 | GGTAAATA | 0.157
2 | CCTGTACA | 0.0402
3 | ACGGAGGG | -0.116
4 | AGCATGGC | -0.273
5 | CATGTGCA | 0.0255
6 | AGTTACCA | 0.263
7 | ACTGGGAA | -0.0602
8 | GAAGTATC | 0.0765
9 | ACGTGAGT | -0.107
10 | ATCTACGA | -0.302
11 | AAGTTATG | 0.181
12 | CAACCAGG | 0.0949
13 | ACCTATAT | 0.356
14 | AGAGCACA | 0.0518
15 | TACGACCA | 0.0572
16 | AATCGCTC | -0.283
17 | CCGGTAGA | 0.104
18 | CCGCGATA | 0.0426
19 | CATTTTAA | 0.152
20 | AGCTCCAG | -0.173
21 | GCACGAGA | -0.148
22 | GCCGGTTA | 0.33
23 | CAATTAGA | 0.0974
24 | CACGTGAC | -0.156
25 | AATAATCA | 0.0545

Row | Sequence | PBM E-score
26 | CCATCGGC | -0.194
27 | CTCTTCAC | -0.166
28 | CATCATGG | -0.0268
29 | GCTTTTGA | -0.264
30 | CCGGTGTC | 0.0219
31 | ACTTGGTG | -0.0637
32 | ACAGCGTG | -0.0621
33 | AGAGAACT | -0.219
34 | CGCACGAA | 0.0172
35 | AGCCCGAA | -0.194
36 | CAAGTCGA | -0.236
37 | GACTTCAA | -0.129
38 | GGTTTATA | 0.176
39 | GATCGTCA | -0.131
40 | AAGAGCAG | -0.247
41 | ACTCGGAT | 0.00649
42 | AAGCTATG | -0.106
43 | GCACAACA | 0.0549
44 | TCGCTCCA | -0.181
45 | ACCACTGC | 0.0869
46 | CCCCGCGG | 0.278
47 | AGGACGCA | -0.0678
48 | GGTCGCTA | -0.0836
49 | CATCAGCC | -0.0837
50 | CACCGAGG | 0.0545

Row | Sequence | PBM E-score
51 | AACGCGGG | -0.0658
52 | AATGAAAC | 0.198
53 | GATCAAGA | 0.0771
54 | ACCCTGGG | 0.376
55 | AAACTCGG | 0.115
56 | ACCTCCTG | 0.0171
57 | GCGATCCA | 0.052
58 | AGACGCCA | -0.0612
59 | TACCTTCA | 0.255
60 | AGATATTA | -0.133
61 | CCAGCCAG | -0.439
62 | GGACTGGA | -0.164
63 | AGGCTATA | 0.0633
64 | CATGATCA | 0.247
65 | CCAGAGGC | -0.0501
66 | CTGCATTA | -0.229
67 | TAAGAGTA | 0.165
68 | CGACGCCC | -0.0334
69 | CCGCTTAA | 0.0268
70 | ACCTGGGG | -0.192
71 | AAAGAGTC | -0.0763
72 | AAGTGTCT | -0.177
73 | ATTTACAG | -0.00411
74 | ACAGATTC | 0.044
75 | GCACCGCA | -0.0256

Row | Sequence | PBM E-score
76 | GTACATAA | 0.127
77 | TGTCGACA | -0.0307
78 | AGGTGAAG | 0.0597
79 | GCCGCCCC | -0.0313
80 | AAGGAATT | -0.194
81 | ACCGCCAC | 0.0201
82 | ACTGCAGC | -0.184
83 | ATCGGCAA | -0.271
84 | CTGCTGCC | -0.214
85 | ATCTCTTA | -0.218
86 | GGTAGACA | -0.0227
87 | AGAGTCCC | -0.218
88 | ATGTGCAC | -0.178
89 | AAGCAGCT | -0.115
90 | GCATAGAA | 0.068
91 | CATCCCCA | -0.0691
92 | CAAGCGAG | 0.00033
93 | AATAGAGA | -0.242
94 | ACGAACGG | -0.0781
95 | GTGGAGTA | -0.143
96 | ACGTCTCG | -0.228
97 | CATTAATA | 0.183
98 | ACCCAGTA | 0.0842
99 | AACCGTGG | 0.14
100 | CCGCGCGC | 0.0679

Row | Sequence | PBM E-score
101 | AAGAATTG | -0.0347
102 | GATGCGCC | -0.0154
103 | CAACTGGA | -0.105
104 | GACACACC | 0.0913
105 | TGAGCCAA | -0.12
106 | CTATGCAC | -0.181
107 | ATGGGAGC | -0.116
108 | TAGCCATA | -0.138
109 | ACGCTAGC | -0.181
110 | AGAATTAC | 0.142
111 | GCTAGAAA | 0.152
112 | CCAGACCA | 0.115
113 | GAATGTCA | -0.253
114 | CTCACACA | -0.0262
115 | AATGTGTC | -0.0457
116 | CCATCCCA | -0.0802
117 | TGACACAA | 0.0925
118 | CGTTCTCA | -0.0832
119 | CCCTTAGA | 0.129
120 | CAACCATC | -0.0615
121 | GGTTCGAC | 0.00298
122 | CAGAGAGC | -0.282
123 | AACGGGCC | -0.162
124 | ACTACGCA | -0.143
125 | AGTGCATA | -0.0475

Row | Sequence | PBM E-score
126 | ATCTCCCC | -0.205
127 | ACAAATTA | 0.142
128 | ATGGGTCA | 0.359
129 | CCCGACAC | -0.214
130 | CAAGTTGG | 0.121
131 | ATCCCATA | 0.117
132 | AGTCACAA | 0.161
133 | ATACTGCG | -0.0551
134 | CATGGTCC | 0.0076
135 | GTATGAGA | 0.0741
136 | CATGCGGC | -0.0959
137 | ATAGCAAA | 0.113
138 | GCAAGCCC | -0.1
139 | AAGCGCGG | -0.169
140 | ATGAGGAA | 0.0546
141 | CCAAGCGA | -0.12
142 | GATGCATA | -0.178
143 | CCCCCCCA | -0.335
144 | ACTGGTGA | -0.0129
145 | CCTTAATA | 0.167
146 | CACTCTCC | -0.118
147 | CAAGATAG | -0.0554
148 | GGTACAGA | 0.159
149 | GCGATTAC | -0.0228
150 | CATCCTGC | -0.302

Row | Sequence | PBM E-score
151 | GACCGCGA | 0.259
152 | CCACTCAC | 0.00202
153 | GCGTGAGA | -0.0239
154 | ATTTTTGC | 0.061
155 | ATTGTCGG | -0.123
156 | AACCTTTC | 0.324
157 | CGGAAAAG | -0.103
158 | CTAGAGCC | -0.285
159 | CCACAACC | 0.411
160 | AACCAGCA | 0.3
161 | AAGAGAGT | -0.196
162 | GGTATCAA | 0.0873
163 | AGCACGAG | -0.11
164 | CGAGAACG | -0.143
165 | ATGTCGCG | 0.0309
166 | AGGGATCC | -0.152
167 | ACTTGTTC | -0.00394
168 | GCGAGACC | 0.2
169 | GCTGACCA | 0.161
170 | GAAGAACC | 0.111
171 | AATGAATT | 0.123
172 | CCTCCCGC | -0.0216
